Source: publication PMC4336329 (PLoS ONE, 2015)
The whole screen tested about 310,000 compounds, of which about 2,200 (0.71%) showed an effect of 50% or more. The effect is printed as a negative number. The list shows a part of the results.

Each compound was assayed against human ether-à-go-go-related gene (hERG) potassium channel (human, UniProt Q12809) (assay: primary screen, population patch clamp on CHO cells stably expressing hERG).
human ether-à-go-go-related gene (hERG) potassium channel, sequence (Q12809 whole entry, looked up): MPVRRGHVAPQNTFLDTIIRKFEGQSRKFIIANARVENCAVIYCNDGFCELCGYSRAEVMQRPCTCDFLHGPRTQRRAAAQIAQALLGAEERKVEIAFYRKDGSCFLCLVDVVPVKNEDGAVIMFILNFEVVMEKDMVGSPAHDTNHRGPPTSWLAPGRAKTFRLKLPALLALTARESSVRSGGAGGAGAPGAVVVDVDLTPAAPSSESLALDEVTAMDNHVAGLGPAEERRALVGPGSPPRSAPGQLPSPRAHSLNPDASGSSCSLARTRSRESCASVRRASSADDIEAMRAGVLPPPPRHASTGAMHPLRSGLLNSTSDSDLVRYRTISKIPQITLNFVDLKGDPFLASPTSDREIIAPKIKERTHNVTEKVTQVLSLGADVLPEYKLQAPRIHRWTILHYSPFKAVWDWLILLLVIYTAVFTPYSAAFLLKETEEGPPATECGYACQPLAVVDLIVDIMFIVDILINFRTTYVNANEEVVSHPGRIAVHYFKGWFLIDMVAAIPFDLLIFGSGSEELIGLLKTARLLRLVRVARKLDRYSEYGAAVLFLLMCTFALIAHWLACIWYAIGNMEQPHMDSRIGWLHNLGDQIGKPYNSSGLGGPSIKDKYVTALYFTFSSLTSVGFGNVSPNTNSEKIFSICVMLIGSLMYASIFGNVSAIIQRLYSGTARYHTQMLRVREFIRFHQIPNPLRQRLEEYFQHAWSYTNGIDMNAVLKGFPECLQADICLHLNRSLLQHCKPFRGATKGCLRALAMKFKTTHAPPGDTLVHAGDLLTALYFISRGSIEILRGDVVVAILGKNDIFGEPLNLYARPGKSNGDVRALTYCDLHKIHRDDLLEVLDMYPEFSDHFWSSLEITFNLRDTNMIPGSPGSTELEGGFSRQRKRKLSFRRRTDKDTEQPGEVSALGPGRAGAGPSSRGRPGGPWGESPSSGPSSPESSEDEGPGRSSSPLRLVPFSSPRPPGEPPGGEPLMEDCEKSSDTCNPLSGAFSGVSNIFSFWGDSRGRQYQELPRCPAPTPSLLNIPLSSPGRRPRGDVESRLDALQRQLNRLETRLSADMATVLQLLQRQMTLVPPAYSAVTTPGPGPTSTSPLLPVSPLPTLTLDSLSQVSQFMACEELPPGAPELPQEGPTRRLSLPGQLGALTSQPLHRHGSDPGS

SMILES | hERG current change (%, negative = inhibition) at 1uM [%]
O=C(CCNC(=O)c1ccccc1Cl)NCC(c1ccc(F)cc1)N1CCOCC1 (centres unmarked) | 8.45
COc1ccc(CN=C2NC(=O)CC(C(=O)Nc3cc(C)cc(C)c3)S2)cc1 (centres unmarked) | -1.01
Nc1ccc(-c2ccc(N)c([N+](=O)[O-])c2)cc1[N+](=O)[O-] | 5.96
Cc1ccc2nc(SCC(=O)Nc3cccc4ccccc34)nc(=O)n2c1 | 14.6
CC(C)CCNC(=O)C(C)N(C(=O)c1snc(C(N)=O)c1N)c1cnc2ccccc2c1 (centres unmarked) | 10.4
O=C1OC/C(=C(/O)c2ccc(Cl)cc2)C1=O | 15
O=C(NCc1ccco1)c1ccc(Cl)c(S(=O)(=O)N2CCCC2)c1 | 8.73
NC(=O)[C@H]1CC2(CC(c3cccc(NC(=O)COc4ccc(Cl)cc4)c3)=NO2)CN1C(=O)Cc1ccc([N+](=O)[O-])cc1 (some centres unmarked) | 8.63
CCc1c(C)c(C#N)c2nc3ccccc3n2c1NCc1ccco1 | -2.58
COCCC(=O)N1CCC(Oc2ccc(C(=O)NCCC3=CCCCC3)cc2)CC1 | -7.56
O=C(O)c1ccc(CSc2ncn[nH]2)cc1 | 10.1
O=C(Nc1cccc(S(=O)(=O)N2CCCCCC2)c1)C1CCN(C(=O)c2ccc(F)cc2)CC1 | -32.2
O=C1Nc2cc(C(F)(F)F)ccc2N2CCCCC12 (centres unmarked) | 13.7
O=C(CCN1C(=O)C2CC=CCC2C1=O)Nc1cccc(S(=O)(=O)N2CCCCC2)c1 (centres unmarked) | 7.36
COc1cc2c(cc1/C=C1/NC(=O)N(c3ccccc3)C1=O)OCO2 | 5.77
CC(C)N1CC(C(=O)Nc2cc(Cl)cc(Cl)c2)CC1=O (centres unmarked) | 1.49
Cc1ccccc1NC(=O)c1cc2c(=O)n3cccc(C)c3nc2s1 | 10.3
CC(c1nccs1)N(C)C(=O)c1cn(Cc2cccc3ccccc23)nn1 (centres unmarked) | 14.3
CC1CN=C(Nc2ccc(F)cc2)S1 (centres unmarked) | 14.3
O=C(NCc1n[nH]c(=S)n1Cc1ccccc1)c1ccc(Cl)cc1Cl | 5.8
O=C(CSc1nc2ccccc2[nH]1)Nc1ccc2c(c1)CCC2 | 14.9
COc1cc(SC)ccc1C(=O)Nc1ccc(Br)cn1 | 16.1

SMILES | hERG current change (%, negative = inhibition) at 1uM [%]
O=C(Nc1ccc(N2CCCCC2)c(Cl)c1)c1ncn[nH]1 | 4.55
O=C(NC1CCCN(Cc2ccc(Cl)cc2)C1)c1cccc(N2CCCC2=O)c1 (centres unmarked) | 7.03
CCn1c(CC(=O)Nc2ccc(Cl)cc2)nnc1SCC(=O)N1CCOCC1 | 13.3
O=C(NCc1ccco1)C(=O)c1cn(CC(=O)N2CCCCC2)c2ccccc12 | 9.58
COc1ccc(OC)c(-c2nnc(SCC(=O)N3CCCC3)o2)c1 | 12.7
O=C(O)/C(=C/c1ccco1)NC(=O)c1ccccc1 | -0.782
O=C(C[C@@H]1NS(=O)(=O)OC2CCCCC21)c1ccccc1 (some centres unmarked) | 3.72
Cc1ccc(S(=O)(=O)Cn2nnnc2C(C(C)C)N2CCc3ccccc3C2)cc1 (centres unmarked) | 6.72
N=C1C(c2ccccc2)=C(O)CN1c1cccc(O)c1 | 18.9
O=C(NCCCN1CCN(c2ccc(F)cc2)CC1)Nc1ccc([N+](=O)[O-])cc1 | -49.5
C/C(=N\NC(=O)C1CC1)c1ccc(Cl)c(Cl)c1 | 8.15
CCNC(=S)NNc1ccccc1 | 0.139
Cc1cccc2cc(C#N)c(NCCNC(=O)NC3CCCCC3)nc12 | 6.49
COc1ccc(N2C(=O)CC(NCc3ccc(F)cc3)C2=O)cc1 (centres unmarked) | 12.6
COC(=O)c1cc(NC(=O)c2ccccc2F)cc(C(=O)OC)c1 | 12.9
CCCS(=O)(=O)N1CCN=C1SCc1cccc(F)c1 | 14.4
COc1ccccc1OCc1nnc(SCC(=O)c2cc(Cl)ccc2OC)o1 | 10.6
O=c1[nH]c(Nc2ccccn2)cc2ccccc12 | 7.63
O=C(Nc1ccc(Cl)c(Cl)c1)Nc1ccc(N2CCCC2)c(S(=O)(=O)Nc2ccccc2Cl)c1 | 14.9
Cc1nn(-c2ccccc2)c2c1C(=O)NC(=O)C(C)(C)C2 | 7.24
S=C1c2ccccc2CN1c1ccccc1 | 11.1
Cc1cccc(NC(=O)CSc2nc(=O)n(CCCN3CCOCC3)c3c2CCCC3)c1 | 3.53
